B1: LC3A_28_1117 (protein)
chain: SVAEKILEEFKKQVEAAIESGEETVIEVKIPGTLSDEEVEELANEVAERAGEAAKKRPVSIVIDVDKDVSQESIDIIADKAEELEKAYPNVNVIIALEER
B2: LC3A_3_1684 (protein)
chain: MEEEVKKVLEEAKKNGWSEETLEALKELLELLKERGYLEAIKTILEEIKALADASSEDWKWMFEELLHKLKTEDLSEEEVVELIKEEAAVIRNAAEIEEL
B3: LC3A_127_215 (protein)
chain: ELEKLIEELLKILEEIQEELDKEDYDLEKIEKLLEEGIKVAKEALKLDPRFKEVLEDLEEALKLVKEMKNLDEAEQEEARERISMLIDGAIISVESLLLK
B4: LC3A_147_425 (protein)
chain: YKVVVEAYFLVKKDGTEALKAIEELAEELKKKGADKVEIEREEDEEDGTILVTVTLEATKETLEEAQAFADEVIDRFEELEEKYKDTLKLVAISVEITEA
B5: LC3A_3_1543 (protein)
chain: LEEELEELLRELRAAGASEETLEAVRRAFEALRERGYEEAARTFIEEMRRLLDAPSELLLEFAEEVLELVETSDLDEESLVREIREIARTIRSESEIIEL
B6: LC3A_free_46_2351 (protein)
chain: VKAEIEIDLLADDKETLEKAVKEIKEKIKEIAEKYGLELEIESEISKLEDGSYFARIKITLKGEKLEDVKKAVNELINEIEKIAEKYNVSAVISYEIIDE
B7: LC3A_23_609 (protein)
chain: MYLIDFEVDLIGEPEEIEKIEKELLEALEEFLEENKDKIVDYEIEVEREELEDGRTYLSIRLKILIDGTREEAEALANEITTIASEIAPDAVISVEVEEV
B8: LC3A_3_1828 (protein)
chain: LEEEKEELIKALKEAGHSEETIEAVKRTLEALLEKGYEEAAREFIELLKENLDLPSELLKELAEEVLELVETEDLSEEELTEKIRELTRLFVNESEIEEL
B9: LC3A_3_1364 (protein)
chain: AEALIEETLAFLRAQGKSEETIAAVRAALEALREAGYLEALEVFAELLREMADLPDELLLAFAEDVLAAVEAGELSEEELIEFIKSEAAVIRSEAEIEEL
B10: LC3A_147_392 (protein)
chain: WVVEVDIDILTKDAEEEVIAAFKALAEELKAEGFEVELEIETEQLDPDTTYIEVRITIKAPTREQAEAAAQRVLDKIDALEEKLKDKILGSIVSVEISEA
B11: LC3A_62_2053 (protein)
chain: KYKLEIEIDVLTESEEDAKEYAEALKEAVEKIKKEFPDVEFEVKVEVEGNYVTVTIKAIADTKEKIEEVKNALLDAIDEIEEKMKDKIKASIISYEISKL
B12: LC3A_3_1771 (protein)
chain: MEERLAAARARLEAAGFSPEVIERALAAIRAALEKGWERVADLILDLMLEMRDLPEIDKLTAAELALEIIEESETSEEELLKKVEDTMRNVAGIEALEEE
B13: LC3A_28_1028 (protein)
chain: SALRENAEKALAEAEAAFERGEEAVVTLRVPDIPKEEAVALVRDTLERLIALSKAHGGVKISVVIEHDGDQETADAIADVAEAAEAANPNLTVILALSEE
B14: LC3A_45_1973 (protein)
chain: MAKVTVDLLVPREKAEKAVEIIKKAAEELEKKSGGKLKFDYETLEESYEETKDEEEVYLRLVIYAPDEQLALDAAVEIVDRLEEELGMPVAAIISSEEEP
B15: LC3A_132_314 (protein)
chain: MEEEYKEIEKELEKLLKEIEKNIDDKEKVEKLLKELEKKLKEAEKKLTPEQVAELALKVADGLDEISRKALEAGKEDVALLLDAASVEAFSRSLRAEKKI
B16: LC3A_23_617 (protein)
chain: MYRVEVEAYAIVPREEAEATVERIRAAIEAILEKNKDKIKEYRIEVELEELEDGSVLITVRVTIVVDGDEETAKEIADEIEDALEAIAPNVVISREIEKL
B17: LC3A_free_8_2507 (protein)
chain: SKEEAIQKVLEALKEMEEKLRKKAEELGASRLDILELELLVGSVIAEVISLSDDSLEKIKEGLKEGLEEVIKAAKEISEELAKLAKEGAEKILKLLEEVE
B18: LC3A_free_46_2309 (protein)
chain: VRAEILIDLLHDDEEVLKEAVEEIVEAIREIAEKYGLEVEIEVSFSKDPDGSYFAEIKVTLKGETKEKVQAAVDEIIERIDEIAEKYDVSYIISVEIEEE
B19: LC3A_28_900 (protein)
chain: GAALESARAALAEVQAAVAAGDTSPLVVEVKAPAEEEDAERFLELLEELAEVASQRPGVTIVVDVSEEVSQENIDRIIDTAERIEAKYPNVTVIIALPED
B20: LC3A_59_2015 (protein)
chain: SAELEAAIAAIKANVDDLEKLAKTLAEALEKFKDDPEAVDALIDAAAEALSKKYGISDEDMEELKAEIRKAFEELKDKEELEKKILELLKDYVNLIPIEE
B21: LC3A_28_640 (protein)
chain: SEIREQIERALREAEEARRRGEPTVITLTLDGNATQEDVELLIEALERIAEILESVPGSAIVVDITGDVKQEHIDLVADKAEEIEKKYPNVTVILALEEK
B22: LC3A_3_1441 (protein)
chain: MEELLERAREVLEEIGASPEATEAVLRLVERALEAGEEELVERLIEVLEEARDVPSEELLEAAEEALRRLEEEGVPVEEVLERFIEEIRLLALEKEIEEL
B23: LC3A_28_985 (protein)
chain: SAMEERLAAALAEAKAAAAAGEATVITIEVPSTATEEDIEKAVAALKEIGEILKGVKGSAIVVDLESGVPEEHIRKLADAGEEVEKANPDVSVIFALDED
B24: LC3A_28_824 (protein)
chain: SVAEEIIEEINKKAEEILKSGKPGVLEVDIKPTLSEEEVKEIAENIKEQAKKLKDIPGTAIVINLEGPTSQEKQDIIMETADEIEEEYPNITVIIALDED
B25: LC3A_28_709 (protein)
chain: NPLEESIKKALAEAKAAAAAGEETVITIKVPGDATEEDIEKLIKALEEIAEILKDLKSTSIVIDVDGGVKQEHIDKIADAAEEIEKKYPNVTVIIALDES
B26: LC3A_78_2086 (protein)
chain: MKKAIIAHSPSTKEEAEREAERLKDEMEVTVVDLSDLEKALEKYKDEDEVLVIVHADTLDEAMEAEEKIKEIFKDYKISSIIELDEETGKVTAYIEIRKK
B27: LC3A_free_46_2323 (protein)
chain: PKVEIDIDALHEDKETMEKFVEEVKKSIKKIAEKYGAKVEIKVNIEKLPDGSYYANIEITIYAETKEKAEKAANEIIDEIEKIAKEKNVAIIISREFIEE
B28: LC3A_3_1426 (protein)
chain: AEELFERARREMEEIGLSEEAREAVLELVRRALEAGEFEEVEELIRELKRARNVPSEEILEAAREALRRVEEEGVPIREALRELIEEVRLLRLEKEIEEL
B29: LC3A_28_949 (protein)
chain: MTIEEQVKKALEEAKKAKEKNEPVTITLTVTGDATEEDVELVIKTIREIAELHKDIKGVSIIVDVDGDVKQEFIDLLLDELDRVEKEYPNINAIMALDED

The full ranking holds about 2,300 sequences; the median of “median log2 fold change of GCK-ALFA target abundance (FLAG IP / Myc IP barcode read proportion)” is about 0.095, and the lowest 2% start at about -0.47. Some of the results follow.

For the test, the target named is MAP1LC3A, Q9H492. As to the kind of experiment: median log2 fold change of GCK-ALFA target abundance (FLAG IP / Myc IP barcode read proportion) (log2 ratio); each designed protein is fused to an ALFA-tag nanobody in HEK293 cells to bring the named protein to FLAG-tagged glucokinase (GCK); Myc marks an untargeted standard; higher = target protein stabilised (more abundant). The settings on record: target protein: 3xFLAG-MCP-GCK-ALFA reporter; HEK293 landing pad (RPLP). In a few lines: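 Binders fused to an ALFA nanobody were recombined as a library into HEK293 landing-pad cells, which were induced with 2 μg mL^−1 doxycycline and then transfected to express a FLAG-tagged target and a Myc-tagged standard. After 48 h, circular RNA barcodes recovered by anti-FLAG and anti-Myc immunoprecipitation of lysates were reverse transcribed, amplified and sequenced. Each binder's target abundance is the median log2 ratio of FLAG to Myc barcode read proportions, from barcodes present at ≥10^−7 in both replicates, binders carrying ≥3 barcodes per replicate, a 10^−6 pseudocount and pooled replicates.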
Regarding B1, the “median log2 fold change” value was -0.0935. Then B2, with 0.284. Then B3, with 0.125; and B4, with 0.147. In the case of B5, the “median log2 fold change” value was 0.179.

For the molecule B6, the “median log2 fold change” value worked out at 0.106. The same measure for B7: -0.664. Turning to B8, the “median log2 fold change” value was determined as 0.152. The same measure for B9: 0.0587.

Turning to B10, the “median log2 fold change” value was determined as 0.0656. Then B11, with -0.0812; and B12, with 0.121; and B13, with 0.233. The same measure for B14: 0.184.

B15: the “median log2 fold change” value amounted to 0.189. The same measure for B16: -0.151. Then B17, with 0.196; and B18, with -0.0343; and B19, with -0.235. The same measure for B20: 0.36; for B21: -0.0387. Consider B22, for which the “median log2 fold change” value was 0.113. Regarding B23, the “median log2 fold change” value is -0.274. As for B24, the “median log2 fold change” value is -0.0892. Regarding B25, the “median log2 fold change” value was determined as 0.108.

B26: the “median log2 fold change” value was found to be 0.255. The same measure for B27: 0.0144. For the molecule B28, the “median log2 fold change” value stood at 0.0986. Take B29: the “median log2 fold change” value was 0.125.

These data come from the supplement of paper PMC12632987.
